Test results reported in the supplement of paper PMC4967469.
By IC50 is meant the dose at which the fit gives 50% viability; a fit beyond the top or the lowest dose is shown as a bound at that dose. For AUC the same curve is integrated over the 256-fold range of doses and scaled to a fraction: 1 means no effect, lower means more sensitive. For part of these data: Any top dose called inferred was calculated from the reported fits. For part of these data: An entry number marks a drug with two screens in the source, which often give different values.

Key:
Assay in all cases: Viability of human cancer cell lines after 72 h of drug (GDSC screen)
[1] = compound: O=C(NCCCNc1nc(Nc2cccc(NC(=O)N3CCCC3)c2)ncc1I)c1cccs1 [BX-795]; conditions: top dose 5 µM; top dose inferred
Description: (§1)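 Human cancer cell lines in 384-well plates, medium with 10% serum, drug for 72 h over a 256-fold dose range (nine 2-fold or five 4-fold steps up to the top dose). Adherent lines were fixed and stained with the nucleic acid dye Syto60, suspension lines read with resazurin; signal relative to control wells, capped at 0 and 100%. One two-parameter sigmoid per drug and line, fitted in a mixed model over all curves with the slope shared within a line.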

[2] = compound: CC1=C(/C=C/C(C)=C/C=C/C(C)=C/C(=O)O)C(C)(C)CCC1 [Tretinoin]; conditions: top dose 10 µM; top dose inferred
Description: as §1

[3] = compound: Cc1cccc(-c2[nH]c(C(C)(C)C)nc2-c2ccc3c(c2)OCO3)n1 [SB-505124]; conditions: top dose 10 µM; top dose inferred
Description: as §1

[4] = compound: COc1cc2c(NC3CCN(C(C)C)CC3)nc(C3CCCCC3)nc2cc1OCCCN1CCCC1 [UNC0638]
Description: as §1

[5] = compound: Oc1cccc(-c2nc(N3CCOCC3)c3oc4ncccc4c3n2)c1 [PI-103]; conditions: top dose 10.24 µM
Description: as §1

[6] = compound: CCn1c(-c2nonc2N)nc2c(C#CC(C)(C)O)ncc(OC[C@H]3CCCNC3)c21 [GSK690693]; conditions: top dose 10.24 µM; top dose inferred
Description: as §1

[7] = top dose 20 µM, screen: GDSC drug entry 1236, top dose inferred
[8] = top dose 40 µM, screen: GDSC drug entry 245

Row | Cell Line | AUC [1] | IC50 [1] [µM] | AUC [2] | IC50 [2] [µM] | AUC [3] | IC50 [3] [µM] | AUC [4, 7] | IC50 [4, 7] [µM] | AUC [4, 8] | IC50 [4, 8] [µM] | AUC [5] | IC50 [5] [µM] | AUC [6] | IC50 [6] [µM]
1 | A375 (melanoma, adherent) | 0.718 | 1.13 | 0.965 | > 10 | 0.962 | > 10 | 0.967 | > 20 | 0.892 | 32.4 |  |  |  | 
2 | BALL-1 (B-cell leukaemia, suspension) | 0.947 | 4.96 | 0.976 | > 10 | 0.99 | > 10 | 0.897 | 12.8 |  |  |  |  |  | 
3 | BT-549 (breast, adherent) | 0.869 | > 5 | 0.979 | > 10 | 0.976 | > 10 | 0.775 | 11.2 |  |  |  |  |  | 
4 | CL-34 (large intestine, adherent) | 0.934 | > 5 | 0.987 | > 10 | 0.986 | > 10 | 0.983 | > 20 |  |  |  |  |  | 
5 | CL-40 (large intestine, adherent) | 0.861 | > 5 | 0.952 | > 10 | 0.972 | > 10 | 0.928 | > 20 |  |  |  |  |  | 
6 | CML-T1 (chronic myeloid leukaemia, suspension) | 0.856 | 2.98 | 0.88 | 7.36 | 0.964 | > 10 | 0.833 | 9.94 |  |  |  |  |  | 
7 | CRO-AP2 (B-cell lymphoma, suspension) | 0.657 | 0.799 | 0.986 | > 10 | 0.947 | > 10 | 0.73 | 5.06 |  |  |  |  |  | 
8 | DIFI (large intestine, adherent) | 0.925 | > 5 | 0.982 | > 10 | 0.986 | > 10 | 0.979 | > 20 |  |  |  |  |  | 
9 | EW-22 (Ewing sarcoma, adherent) | 0.845 | 3.41 | 0.98 | > 10 | 0.986 | > 10 | 0.785 | 8.19 |  |  |  |  |  | 
10 | HCC202 (breast, adherent) | 0.979 | > 5 | 0.981 | > 10 | 0.958 | > 10 | 0.825 | 19.1 | 0.612 | 5.75 |  |  |  | 
11 | HCC-366 (non-small cell lung carcinoma, adherent) | 0.934 | > 5 | 0.988 | > 10 | 0.981 | > 10 | 0.835 | 13.9 |  |  |  |  |  | 
12 | IGROV-1 (ovary, adherent) | 0.878 | > 5 | 0.977 | > 10 | 0.973 | > 10 | 0.973 | > 20 |  |  |  |  |  | 
13 | JEKO-1 (B-cell lymphoma, suspension) | 0.598 | 0.573 | 0.917 | > 10 | 0.97 | > 10 | 0.807 | 9.73 |  |  |  |  |  | 
14 | JHOS-4 (ovary, adherent) | 0.98 | > 5 | 0.98 | > 10 |  |  |  |  |  |  |  |  |  | 
15 | JHU-029 (head and neck, adherent) | 0.903 | > 5 | 0.98 | > 10 | 0.956 | > 10 | 0.728 | 6.57 |  |  |  |  |  | 
16 | Jurkat (T-cell leukaemia, suspension) | 0.991 | > 5 | 0.973 | > 10 | 0.992 | > 10 | 0.783 | 6.87 |  |  |  |  |  | 
17 | KARPAS-1106P (B-cell lymphoma, suspension) | 0.756 | 1.44 | 0.979 | > 10 | 0.993 | > 10 | 0.812 | 8.49 |  |  |  |  |  | 
18 | KATOIII (stomach, semi-adherent) | 0.799 | 2.17 | 0.923 | > 10 | 0.975 | > 10 | 0.905 | > 20 |  |  |  |  |  | 
19 | KNS-62 (lung squamous cell carcinoma, adherent) | 0.852 | > 5 | 0.962 | > 10 | 0.961 | > 10 | 0.939 | > 20 |  |  |  |  |  | 
20 | KP-1N (pancreas, adherent) | 0.881 | > 5 | 0.976 | > 10 | 0.963 | > 10 | 0.734 | 6.02 |  |  |  |  |  | 
21 | MEL-HO (melanoma, adherent) | 0.901 | > 5 | 0.898 | > 10 | 0.839 | 6.94 | 0.806 | 10.3 |  |  |  |  |  | 

Row | Cell Line | AUC [1] | IC50 [1] [µM] | AUC [2] | IC50 [2] [µM] | AUC [3] | IC50 [3] [µM] | AUC [4, 7] | IC50 [4, 7] [µM] | AUC [4, 8] | IC50 [4, 8] [µM] | AUC [5] | IC50 [5] [µM] | AUC [6] | IC50 [6] [µM]
22 | MHH-CALL-2 (B-cell leukaemia, suspension) | 0.996 | > 5 | 0.993 | > 10 | 0.968 | > 10 | 0.865 | 10.5 |  |  |  |  |  | 
23 | MKN7 (stomach, adherent) | 0.889 | > 5 | 0.981 | > 10 | 0.982 | > 10 | 0.843 | > 20 |  |  |  |  |  | 
24 | MOLM-16 (acute myeloid leukaemia, suspension) | 0.745 | 1.41 | 0.945 | > 10 | 0.969 | > 10 | 0.78 | 7.23 |  |  |  |  |  | 
25 | MOLT-16 (T-cell lymphoblastic leukaemia, suspension) | 0.807 | 1.97 | 0.889 | 7.41 | 0.896 | 7.92 | 0.777 | 6.44 |  |  |  |  |  | 
26 | NCC010 (kidney, adherent) | 0.839 | 3.77 | 0.986 | > 10 | 0.984 | > 10 | 0.74 | 6.44 |  |  |  |  |  | 
27 | NCI-H146 (small cell lung carcinoma, suspension) | 0.948 | > 5 | 0.967 | > 10 | 0.992 | > 10 | 0.847 | 10.4 |  |  |  |  |  | 
28 | NCI-H292 (lung adenocarcinoma, adherent) |  |  | 0.832 | 8.39 | 0.871 | > 10 | 0.656 | 3.74 | 0.686 | 9.35 | 0.813 | 7.05 | 0.979 | > 10.2
29 | NCI-H441 (lung adenocarcinoma, adherent) |  |  | 0.954 | > 10 | 0.978 | > 10 | 0.874 | > 20 | 0.911 | > 40 | 0.981 | > 10.2 | 0.981 | > 10.2
30 | NCI-H2029 (small cell lung carcinoma, adherent) |  |  | 0.985 | > 10 | 0.989 | > 10 | 0.943 | > 20 | 0.767 | 13.4 | 0.892 | 10.1 | 0.947 | > 10.2
31 | NCI-H2122 (lung adenocarcinoma, adherent) |  |  | 0.981 | > 10 | 0.966 | > 10 | 0.745 | 5.96 | 0.845 | 26.1 | 0.813 | 5.1 | 0.983 | > 10.2
32 | PA-TU-8988T (pancreas, adherent) |  |  | 0.938 | > 10 | 0.895 | > 10 | 0.948 | > 20 | 0.912 | > 40 | 0.59 | 1.13 | 0.985 | > 10.2
33 | PANC-08-13 (pancreas, adherent) |  |  | 0.974 | > 10 | 0.979 | > 10 | 0.83 | 17.7 | 0.716 | 12.3 | 0.579 | 1.12 | 0.983 | > 10.2
34 | RMG-I (ovary, adherent) |  |  | 0.983 | > 10 | 0.968 | > 10 | 0.888 | > 20 | 0.745 | 14.4 | 0.454 | 0.47 | 0.97 | > 10.2
35 | SCC-4 (head and neck, adherent) |  |  | 0.89 | > 10 | 0.982 | > 10 | 0.94 | > 20 | 0.971 | > 40 | 0.961 | > 10.2 | 0.975 | > 10.2
36 | SK-MEL-24 (melanoma, adherent) |  |  | 0.937 | > 10 | 0.981 | > 10 | 0.835 | 17.3 | 0.866 | > 40 | 0.983 | > 10.2 | 0.983 | > 10.2
37 | SW1990 (pancreas, adherent) |  |  | 0.982 | > 10 | 0.97 | > 10 | 0.983 | > 20 | 0.972 | > 40 | 0.944 | > 10.2 | 0.985 | > 10.2
38 | U251 (glioma, adherent) |  |  | 0.985 | > 10 | 0.792 | 4.29 | 0.881 | 19.2 | 0.762 | 13.7 | 0.791 | 4.37 | 0.95 | > 10.2
39 | UM-UC-3 (bladder, adherent) |  |  | 0.988 | > 10 | 0.959 | > 10 | 0.959 | > 20 | 0.878 | 36.3 | 0.281 | 0.161 | 0.957 | > 10.2
40 | UMC-11 (lung carcinoid, adherent) |  |  | 0.957 | > 10 | 0.989 | > 10 | 0.897 | > 20 | 0.738 | 10.9 | 0.62 | 1.32 | 0.987 | > 10.2
41 | VMRC-MELG (melanoma, adherent) |  |  | 0.984 | > 10 | 0.988 | > 10 | 0.858 | 17.7 | 0.874 | > 40 | 0.972 | > 10.2 | 0.989 | > 10.2
42 | WM278 (melanoma, adherent) |  |  | 0.975 | > 10 | 0.979 | > 10 | 0.706 | 5.17 | 0.677 | 8.32 | 0.98 | > 10.2 | 0.981 | > 10.2
